Assay results taken from the supplement of paper PMC4604168 (melanoma cell lines).
The other results are listed elsewhere or left out. Repeats are few or missing, and single values can be far off.
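Further: cells treated in 1,536-well plates, then fixed and DAPI-stained, with nuclei counted from automated high-throughput microscope images.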

What follows are compounds tested on WM115 (assay: cell count relative to DMSO control; melanoma cells; higher = more viable cells). Conditions: library dose: standard library concentration; 72 h.
With `CN1CCN(c2ccc3nc(-c4c(N)c5c(F)cccc5[nH]c4=O)[nH]c3c2)CC1` [Dovitinib] + COc1ccc(-c2ccc3c(N4CCOCC4)nc(N4C[C@@H](C)O[C@@H](C)C4)nc3n2)cc1CO [KU0063794] (first compound 0.5 µM, partner dose 0.1 µM) the cell count was 73.9%.
`C=CCNC1=C2C[C@@H](C)C[C@H](OC)[C@H](O)[C@@H](C)/C=C(\C)[C@H](OC(N)=O)[C@@H](OC)/C=C\C=C(/C)C(=O)NC(=CC1=O)C2=O` [Tanespimycin] + COc1ccc(-c2ccc3c(N4CCOCC4)nc(N4C[C@@H](C)O[C@@H](C)C4)nc3n2)cc1CO [KU0063794] (first compound 0.01 µM, partner dose 0.1 µM) was tested, and the cell count was 26%.
`CN1CCN(c2ccc3nc(-c4c(N)c5c(F)cccc5[nH]c4=O)[nH]c3c2)CC1` [Dovitinib] + COc1cc2ncnc(Nc3ccc(Oc4ccccc4)cc3)c2cc1OC [SrcI1] (first compound 0.5 µM, partner dose 10 µM) showed a cell count of 57.5%.
With `C=CCNC1=C2C[C@@H](C)C[C@H](OC)[C@H](O)[C@@H](C)/C=C(\C)[C@H](OC(N)=O)[C@@H](OC)/C=C\C=C(/C)C(=O)NC(=CC1=O)C2=O` [Tanespimycin] + O=c1cc(-c2cccc3c2Sc2ccccc2S3)oc(N2CCOCC2)c1 [KU55933] (first compound 0.01 µM, partner dose 5 µM) the cell count was 23.4%.
`C=CCNC1=C2C[C@@H](C)C[C@H](OC)[C@H](O)[C@@H](C)/C=C(\C)[C@H](OC(N)=O)[C@@H](OC)/C=C\C=C(/C)C(=O)NC(=CC1=O)C2=O` [Tanespimycin] + COc1ccc(COc2ccc(Cc3cnc(N)nc3N)cc2OC)cc1 [GW2580] (first compound 0.01 µM, partner dose 5 µM) gave a cell count of 20.5%.
Compound `CNC(=O)c1cc(Oc2ccc(NC(=O)Nc3ccc(Cl)c(C(F)(F)F)c3)cc2)ccn1` [sorafenib] + N#Cc1c(O)c2c(-c3ccc(-c4ccccc4O)cc3)csc2[nH]c1=O [A769662] (first compound 2 µM, partner dose 10 µM) has a cell count of 72.9%.
In the case of `CN1CCN(c2ccc3nc(-c4c(N)c5c(F)cccc5[nH]c4=O)[nH]c3c2)CC1` [Dovitinib] + O=C1NC(=O)/C(=C/c2ccc(-c3ccc(F)cc3O)o2)S1 [AS252424] (first compound 0.5 µM, partner dose 5 µM), the cell count is reported as 65.4%.
In the case of `CNC(=O)c1cc(Oc2ccc(NC(=O)Nc3ccc(Cl)c(C(F)(F)F)c3)cc2)ccn1` [sorafenib] + O=C(O)C(=O)Nc1sc2c(c1C(=O)O)CCNC2 [TCS401] (first compound 2 µM, partner dose 8.33333 µM), the cell count is reported as 84.6%.
`C[C@@H](Oc1cc(-c2cnn(C3CCNCC3)c2)cnc1N)c1c(Cl)ccc(F)c1Cl` [Crizotinib] + COc1cc2ncnc(Nc3ccc(Oc4ccccc4)cc3)c2cc1OC [SrcI1] (first compound 1 µM, partner dose 10 µM) was tested, and the cell count was 56.1%.
With `CS(=O)(=O)CCNCc1ccc(-c2ccc3ncnc(Nc4ccc(OCc5cccc(F)c5)c(Cl)c4)c3c2)o1` [lapatinib] + Oc1nc(-c2ccc(C(F)(F)F)cc2)nc2c1CSCC2 [XAV939] (first compound 4 µM, partner dose 10 µM) the cell count was 81.4%.
`C=CCNC1=C2C[C@@H](C)C[C@H](OC)[C@H](O)[C@@H](C)/C=C(\C)[C@H](OC(N)=O)[C@@H](OC)/C=C\C=C(/C)C(=O)NC(=CC1=O)C2=O` [Tanespimycin] + O=C(O)C(=O)Nc1sc2c(c1C(=O)O)CCNC2 [TCS401] (first compound 0.01 µM, partner dose 8.33333 µM) gave a cell count of 24.6%.
`C=CCNC1=C2C[C@@H](C)C[C@H](OC)[C@H](O)[C@@H](C)/C=C(\C)[C@H](OC(N)=O)[C@@H](OC)/C=C\C=C(/C)C(=O)NC(=CC1=O)C2=O` [Tanespimycin] + Oc1nc(-c2ccc(C(F)(F)F)cc2)nc2c1CSCC2 [XAV939] (first compound 0.01 µM, partner dose 10 µM) was tested, and the cell count was 30.1%.
Work on `CNC(=O)c1cc(Oc2ccc(NC(=O)Nc3ccc(Cl)c(C(F)(F)F)c3)cc2)ccn1` [sorafenib] + CCc1ccc(CCOc2ccc(CC3SC(=O)NC3=O)cc2)nc1 [pioglitazone] (first compound 2 µM, partner dose 10 µM) yielded a cell count of 98.9%.
